Laboratory results: PubChem BioAssay AID1347165 (National Center for Advancing Translational Sciences (NCATS), 2019)
Out of some 220,000 compounds screened, about 5,700 (2.6%) were called active. Inconclusive means that the source gave no clear call. Such entries were picked first, then a sample of the others. The call rests on the fitted dose curve; in most records, active means well fitted inhibition curve with a large enough effect; inconclusive means small, poorly fitted or top-dose-only effect; inactive means no such curve, though single readings can be large or run the other way. Where the call is inconclusive, the potency comes from a doubtful curve fit.

Each compound was assayed against Lysine-specific demethylase 5B (Homo sapiens) (UniProt Q9UGL1) (assay: Primary screen for KDM5B Histone Demethylases FDH-coupled qHTS). Settings: FDH-coupled NADH fluorescence (FDH is formaldehyde dehydrogenase); activity change, negative = inhibition: at 57.7 µM (top of the series) unless noted.
How it was run: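 qHTS format, multiple compound concentrations. Buffer 50 mM HEPES pH 7.5/0.01% Tween-20; 200 nM KDM5BΔAP final; 10 min compound preincubation; substrate-mix levels 12.5 µM peptide, 25 µM α-KG, 0.25 mM NAD⁺; 30 min RT; ΔRFU.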
Further: nearly all actives have a fitted effect of over 70% in size.
Potency means the concentration at half of the fitted maximal effect; tags describe the fitted curve by direction and shape.
Wherever activity change, negative = inhibition is given: 0% is about no effect.

UniProt Q9UGL1, sequence (Q9UGL1 whole entry, looked up): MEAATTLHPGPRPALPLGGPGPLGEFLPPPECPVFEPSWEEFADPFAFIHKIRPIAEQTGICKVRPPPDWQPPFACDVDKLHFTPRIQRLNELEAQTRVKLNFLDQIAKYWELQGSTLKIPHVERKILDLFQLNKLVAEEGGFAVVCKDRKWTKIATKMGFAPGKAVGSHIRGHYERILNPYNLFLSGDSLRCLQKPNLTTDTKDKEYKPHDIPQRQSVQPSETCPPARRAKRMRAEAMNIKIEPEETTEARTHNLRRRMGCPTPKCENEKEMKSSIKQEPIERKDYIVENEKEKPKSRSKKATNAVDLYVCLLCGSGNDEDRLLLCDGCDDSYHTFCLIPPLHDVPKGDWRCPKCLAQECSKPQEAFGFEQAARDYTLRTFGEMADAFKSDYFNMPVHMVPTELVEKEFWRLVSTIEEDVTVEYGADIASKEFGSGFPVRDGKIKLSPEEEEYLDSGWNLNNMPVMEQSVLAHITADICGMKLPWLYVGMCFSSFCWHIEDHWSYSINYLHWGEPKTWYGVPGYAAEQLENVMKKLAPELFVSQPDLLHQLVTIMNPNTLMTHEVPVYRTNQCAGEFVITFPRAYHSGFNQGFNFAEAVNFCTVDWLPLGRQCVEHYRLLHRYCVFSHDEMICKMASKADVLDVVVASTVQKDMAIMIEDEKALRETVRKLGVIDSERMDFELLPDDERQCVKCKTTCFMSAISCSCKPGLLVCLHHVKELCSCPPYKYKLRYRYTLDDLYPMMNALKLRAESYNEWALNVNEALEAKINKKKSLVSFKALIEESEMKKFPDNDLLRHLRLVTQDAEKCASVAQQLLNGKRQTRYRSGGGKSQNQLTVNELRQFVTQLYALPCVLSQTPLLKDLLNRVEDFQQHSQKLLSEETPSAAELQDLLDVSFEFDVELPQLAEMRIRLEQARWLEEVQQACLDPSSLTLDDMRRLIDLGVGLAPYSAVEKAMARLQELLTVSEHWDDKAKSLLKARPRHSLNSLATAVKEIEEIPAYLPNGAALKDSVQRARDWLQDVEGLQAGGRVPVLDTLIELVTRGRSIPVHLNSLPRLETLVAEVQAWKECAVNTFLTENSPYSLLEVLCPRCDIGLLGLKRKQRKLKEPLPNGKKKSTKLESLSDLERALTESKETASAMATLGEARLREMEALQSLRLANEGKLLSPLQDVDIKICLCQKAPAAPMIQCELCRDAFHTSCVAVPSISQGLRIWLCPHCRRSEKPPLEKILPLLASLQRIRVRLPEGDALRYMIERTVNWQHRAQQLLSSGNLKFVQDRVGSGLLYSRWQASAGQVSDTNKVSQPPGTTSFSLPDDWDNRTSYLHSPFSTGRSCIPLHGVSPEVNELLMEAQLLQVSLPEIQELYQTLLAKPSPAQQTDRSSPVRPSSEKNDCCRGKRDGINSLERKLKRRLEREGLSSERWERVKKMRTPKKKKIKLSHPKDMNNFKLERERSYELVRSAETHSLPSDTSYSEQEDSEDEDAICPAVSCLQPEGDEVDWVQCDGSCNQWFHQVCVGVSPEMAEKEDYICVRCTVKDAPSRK

Row | SMILES | Potency | activity change, negative = inhibition
1 | Fc1ccc(-n2c(-c3ccco3)n[nH]c2=S)cc1 | inconclusive: 28.2 µM [inhibitor, partial curve, poor fit] | 
2 | O=C(NCCc1nc(-c2cccnc2)no1)C1CC2(CCNCC2)CN1 (stereo not given) |  | inactive: -10%
3 | O=C(c1cc2ccccc2oc1=O)N1CCC2(CCCN(Cc3ccccc3F)C2)C1 (stereo not given) | inconclusive: 22.4 µM [inhibitor, partial curve] | 
4 | COC(=O)N1CCCC2(C1)C(=NC1CCCCC1)NC(=O)N2c1cccnc1 (stereo not given) |  | inactive: -6.66%
5 | Cc1ccc(S(=O)(=O)c2nc(-c3ccccc3Cl)oc2N2CCCCCC2)cc1 | inconclusive: 0.794 µM [inhibitor, full curve, poor fit] | 
6 | CC(C)c1ccc(C(NC(=O)c2n[nH]c(=O)c3ccccc23)C(C)C)cc1 (stereo not given) |  | inactive: -10.6%
7 | COCCNC(=O)C[C@@H]1O[C@H](Cn2cc(CN(C)Cc3ccccc3)nn2)[C@@H](O)[C@H]1O | inconclusive: 44.7 µM [inhibitor, single point] | 
8 | Cc1cc2c(-c3ccc(S(C)(=O)=O)cc3)nc(-c3c(C)noc3C)cc2[nH]1 | active: 35.5 µM | 
9 | CCOCCCNC(=O)c1cc2c(=O)[nH]c(-c3ccccc3)cn2n1 | inconclusive: 28.2 µM [inhibitor, partial curve, poor fit] | 
10 | CC(C)c1cnc(C2CCCN(C(=O)OC(C)(C)C)C2)[nH]1 (stereo not given) |  | inactive: 8.86% [at 149 µM]
11 | COc1cccc(NC(=O)c2cc(-c3ccco3)nc3ccccc23)c1 | inconclusive: 31.6 µM [inhibitor, partial curve, poor fit] | 
12 | CCc1noc(-c2ccn3c(CNC(=O)c4ccccc4F)nnc3c2)n1 |  | inactive: -3830%
13 | CCC(=O)N1Cc2ccccc2CC2(CCCN(Cc3cccnc3)C2)C1 (stereo not given) |  | inactive: 8.36% [at 115 µM]
14 | CC(C)(C)CC(=O)N1CCN2C(=O)c3cc(-c4ccc(Cl)cc4)ccc3NC(=O)[C@H]2C1 | inconclusive: 25.1 µM [inhibitor, partial curve, poor fit] | 
15 | c1ccc(-c2cc3ccccn3c2)cc1 | inconclusive: 35.5 µM [inhibitor, single point] | 
16 | O=C1CSc2ccc(C(=O)Nc3cccc4cccnc34)cc2N1 | inconclusive: 39.8 µM [inhibitor, single point] | 
17 | Cn1nc(C(=O)N2CCCCCCNC(=O)[C@@H]3CCCC[C@@H]32)c2ccccc21 |  | inactive: -16%
18 | CCCC(=O)N1Cc2ccccc2CC2(CCCN(Cc3ccncc3)C2)C1 (stereo not given) | inconclusive: 50.1 µM [inhibitor, partial curve] | 
19 | O=C(CN1CC2CC(C1)[C@H]1CCCC(=O)N1C2)NCCCN1CCc2ccccc2C1 (stereo not given in full) | inconclusive: 17.8 µM [inhibitor, single point] | 
20 | COC(=O)[C@@H]1Cc2ncn(Cc3ccc(Cl)cc3)c2CN1Cc1cccs1 | active: 28.2 µM | 
21 | COCC(=O)N1CCN2C(=O)c3cc(-c4cccc(C(F)(F)F)c4)ccc3NC(=O)[C@H]2C1 | active: 28.2 µM | 
22 | COC(=O)[C@@H]1Cc2c([nH]c3ccccc23)[C@H]2C[C@@H](NC(C)C)C[C@@H](c3ccccc3)N21 | active: 11.2 µM | 
23 | COc1ccc(NC(=O)CCc2nnc3n(C)c(=O)c4sccc4n23)cc1Cl |  | inconclusive: -31.1% [inhibitor]
24 | CCNC(=O)c1ccc2c(c1)C1(CCN(CC3CC3)C1)CN2Cc1ccccc1 (stereo not given) | active: 35.5 µM | 

Row | SMILES | Potency | activity change, negative = inhibition
25 | COc1ccc(-c2nc3c(s2)CN(C(C(=O)O)c2c[nH]c4ccc(CO)cc24)CC3)cc1OC (stereo not given) | inconclusive: 15.8 µM [inhibitor, partial curve, poor fit] | 
26 | CCCOC(=O)c1c(-c2ccc(OCC)cc2)csc1NC(=O)c1ccoc1C | inconclusive: 39.8 µM [inhibitor, single point] | 
27 | O=C(CCc1nnn2c1CN(C(=O)c1ccccc1F)CC2)N1CCOCC1 |  | inactive: -9.9%
28 | Cc1ccc(CNC(=O)C23CCC(=O)N2CCS3)cc1 (stereo not given) |  | inactive: 11.3%
29 | CCOC(=O)COc1ccc2cc(-c3ccc(Cl)cc3)c(=O)oc2c1 | inconclusive: 20 µM [inhibitor, partial curve, poor fit] | 
30 | CC1=C(C(=O)OCc2ccc3c(c2)OCO3)C(c2cccc(Cl)c2Cl)CC(=O)N1 (stereo not given) |  | inactive: -12.6%
31 | Fc1cccc(-c2cnc(Nc3cccnc3)c3c2CCO3)c1 | inconclusive: 39.8 µM [inhibitor, partial curve, poor fit] | 
32 | COc1cccc(CNc2nc3c(-c4ccccc4)nnn3c3ccccc23)c1 |  | inconclusive: -43.3% [inhibitor]
33 | CCOC(=O)c1ccc(NC(=O)CCn2ccn3nc4c(c3c2=O)CCCC4)cc1 |  | inactive: 34.2%
34 | CC(c1c(F)cccc1F)n1cnc2c1c(=O)n(C)c(=O)n2C (stereo not given) |  | inactive: 24%
35 | CC(C)CC(=O)N1CCC(Oc2ccccc2-c2nc(C3CCOCC3)no2)C1 (stereo not given) | inconclusive: 28.2 µM [inhibitor, single point] | 
36 | COc1ccc(CCNc2ncnc3c2c(-c2ccccc2)cn3-c2ccc(F)cc2)cc1OC | inconclusive: 39.8 µM [inhibitor, single point] | 
37 | O=C(CN1CCCCC1)Nc1oc2ccccc2c(=O)c1-c1ccc(Cl)cc1 |  | inactive: -25.4%
38 | CC(C)Cn1cc(NC(=O)Nc2ccccc2)c2ccccc2c1=O | inconclusive: 14.1 µM [inhibitor, partial curve, poor fit] | 
39 | COc1ccc(C2(C(=O)N3CCCC(C(=O)NCc4ccccc4)CCNC(=O)CC3)CC2)cc1 (stereo not given) |  | inactive: -10.9%
40 | CCc1ccccc1N(C)C(=O)c1cnc(N2CCOCC2)c2ccccc12 | inconclusive: 28.2 µM [inhibitor, single point] | 
41 | CCOc1ccc(-c2cc(C(=O)NCc3ccncc3)c3ccccc3n2)cc1 | inconclusive: 20 µM [inhibitor, partial curve, poor fit] | 
42 | C=CCNC(=O)NC(=O)CN(C)c1ccc2ccccc2c1 | inconclusive: 31.6 µM [inhibitor, single point] | 
43 | COc1cc(OC)cc(C(=O)Nc2ccccc2C(=O)NCc2cccnc2)c1 |  | inactive: 25.3%
44 | Clc1ccc(Cn2ccnc2-c2cc3n(n2)CCCNC3)cc1Cl | inconclusive: 12.6 µM [inhibitor, single point] | 
45 | Cc1cc(Cl)ccc1OCC(=O)NC1CCN(C)CC1 |  | inactive: 10.9%
46 | Cc1ccc(-c2cc(C(=O)NCc3cnn(C)c3)c3cc(Br)ccc3n2)cc1 |  | inactive: -17.4%
47 | CN1CCC(C(=O)N2Cc3ccccc3CC3(CCCN(C)C3)C2)CC1 (stereo not given) |  | inactive: 27.3% [at 149 µM]
48 | Cc1ccc(-n2c(SCC(=O)Nc3ccc4c(c3)OCO4)nc3c([nH]c4ccccc43)c2=O)cc1 | inconclusive: 35.5 µM [inhibitor, partial curve, poor fit] | 

Row | SMILES | Potency | activity change, negative = inhibition
49 | COc1ccc(C(=O)Nc2nc3c(s2)CCc2cc(OC)ccc2-3)cc1 | inconclusive: 2 µM [inhibitor, partial curve, poor fit] | 
50 | COc1ccc(-c2nnc3ccc(NCCc4ccccc4)nn23)nc1 |  | inactive: 41.6% [at 86.2 µM]
51 | CN(C)C(=S)N(C)C |  | inactive: 16.4%
52 | CNC(=O)c1ccc(NC(=O)c2cc(=O)[nH]c3ccccc23)cc1 |  | inactive: -8.71%
53 | Cc1ccc(C)c(N2CCN(C(=O)Cn3c(-c4cccs4)cc4ccccc43)CC2)c1 | inconclusive: 14.1 µM [inhibitor, partial curve, poor fit] | 
54 | CCOC(=O)c1ccc(NC(=O)C(CC)Sc2nc3ncccc3o2)cc1 (stereo not given) | inconclusive: 28.2 µM [inhibitor, single point] | 
55 | CN(C)C[C@@H]1CN(c2ccccn2)C[C@H]1NC(=O)c1ccc(C#N)cc1 |  | inactive: 5.81%
56 | CCn1cc(C(=O)N[C@@H](CCSC)C(=O)NCCOC)c(=O)c2cc3c(cc21)OCO3 | inconclusive: 20 µM [inhibitor, single point] | 
57 | CC(=O)Nc1ccc(NC(=O)CC2C=CCC2)cc1 (stereo not given) |  | inactive: -22.4%
58 | COc1ccc(C(=O)C[n+]2ccc(-c3nnc4n3CCCCC4)cc2)cc1 | inconclusive: 28.2 µM [inhibitor, partial curve, poor fit] | 
59 | O=c1c2cc(-c3ccccc3)nn2ccn1CC(O)c1ccccc1 (stereo not given) | inconclusive: 15.8 µM [inhibitor, partial curve] | 
60 | O=C(c1nnc(COc2cccc(N3CCOCC3)c2)n1Cc1ccccc1)N1CCC[C@@H]1c1ccc(Br)cc1 |  | inactive: 2.94%
61 | CN(C)c1ccc(CNC(=O)C2CCN(S(=O)(=O)c3ccc4c(ccn4C)c3)CC2)cc1 | inconclusive: 25.1 µM [inhibitor, single point] | 
62 | COc1cc2c(cc1OC)CN(Cc1ccc(F)cc1)CC2 | inconclusive: 25.1 µM [inhibitor, partial curve, poor fit] | 
63 | COc1ccccc1N1CCN([C@@H]2[C@H](O)[C@H](CO)O[C@@H]2CN(C)C)CC1 | inconclusive: 22.4 µM [inhibitor, partial curve] | 
64 | CCC1Oc2ccc(NC(=O)c3ccc(OC)c(OC)c3)cc2CN(Cc2ccc(Cl)cc2)C1=O (stereo not given) | active: 28.2 µM | 
65 | Cc1ncc2n1C(=O)N(C1CCN(Cc3cccc(C(F)(F)F)c3)CC1)C2 | inconclusive: 31.6 µM [inhibitor, partial curve, poor fit] | 
66 | O=C(CCCSc1nc2ccccc2s1)Nc1ccc(F)c(F)c1F |  | inactive: 24%
67 | CC(C)Oc1ccc(CNC(=O)c2ccc(NC(=O)N3CCSc4ncccc43)cc2)cc1 | inconclusive: 25.1 µM [inhibitor, partial curve, poor fit] | 
68 | Cc1ccc(C(=O)NCc2nnc3ccc(-c4ccc(C)c(C)c4)nn23)s1 | active: 28.2 µM | 
69 | CN1[C@@H](CCC(=O)NCc2cccnc2)CNC(=O)[C@@H]2[C@H]1CCN2Cc1ccc(F)cc1 | inconclusive: 35.5 µM [inhibitor, partial curve, poor fit] | 
70 | CN(C)C1CCCN(C(=O)c2ccc(CN3CCCC3)o2)CC1 (stereo not given) | inconclusive: 7.08 µM [inhibitor, partial curve] | 
